# According to the supplement of paper PMC8728848:
# Some of the results follow.
# Columns and labels:
# Assay in all cases: glycan array binding signal (z-score within array); higher = stronger binding
# Conditions in all cases: glycan notation: IUPAC condensed, linker removed
# [1] = target: Neu5Ac(a2-6)Gal(b1-4)GlcNAc(b1-2)Man(a1-3)[Man(a1-6)]Man(b1-4)GlcNAc(b1-4)GlcNAc
# How it was run: (§1)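 The binding signal is a Z-score computed within each array and averaged over linkers. Arrays of the same protein sequence at different concentrations or buffers were also averaged together. Data originate from 3228 arrays in the Consortium for Functional Glycomics database, kept only where the protein sequence was available.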
# [2] = target: Neu5Ac(a2-6)Gal(b1-4)GlcNAc(b1-2)Man(a1-3)[Neu5Ac(a2-3)Gal(b1-4)GlcNAc(b1-2)Man(a1-6)]Man(b1-4)GlcNAc(b1-4)GlcNAc
# How it was run: as §1
# [3] = target: Neu5Ac(a2-6)Gal(b1-4)GlcNAc(b1-2)Man(a1-3)[Neu5Ac(a2-6)Gal(b1-4)GlcNAc(b1-2)Man(a1-6)]Man(b1-4)GlcNAc(b1-4)GlcNAc
# How it was run: as §1
# [4] = target: Neu5Ac(a2-6)Gal(b1-4)GlcNAc(b1-2)Man(a1-3)[Neu5Ac(a2-6)Gal(b1-4)GlcNAc(b1-2)Man(a1-6)]Man(b1-4)GlcNAc(b1-4)[Fuc(a1-6)]GlcNAc
# How it was run: as §1
# [5] = target: Neu5Ac(a2-6)Gal(b1-4)GlcNAc(b1-2)Man(a1-6)Man(b1-4)GlcNAc(b1-4)GlcNAc
# How it was run: as §1
# [6] = target: Neu5Ac(a2-6)Gal(b1-4)GlcNAc(b1-2)Man(a1-6)[Gal(b1-4)GlcNAc(b1-2)Man(a1-3)]Man(b1-4)GlcNAc(b1-4)GlcNAc
# How it was run: as §1
# [7] = target: Neu5Ac(a2-6)Gal(b1-4)GlcNAc(b1-2)Man(a1-6)[GlcNAc(b1-2)Man(a1-3)]Man(b1-4)GlcNAc(b1-4)GlcNAc
# How it was run: as §1
# [8] = target: Neu5Ac(a2-6)Gal(b1-4)GlcNAc(b1-2)Man(a1-6)[Man(a1-3)]Man(b1-4)GlcNAc(b1-4)GlcNAc
# How it was run: as §1
# [9] = target: Neu5Ac(a2-6)Gal(b1-4)GlcNAc(b1-2)[Neu5Ac(a2-6)Gal(b1-4)GlcNAc(b1-4)]Man(a1-3)[GlcNAc(b1-4)][Neu5Ac(a2-6)Gal(b1-4)GlcNAc(b1-2)[Neu5Ac(a2-6)Gal(b1-4)GlcNAc(b1-6)]Man(a1-6)]Man(b1-4)GlcNAc(b1-4)GlcNAc
# How it was run: as §1
# [10] = target: Neu5Ac(a2-6)Gal(b1-4)GlcNAc(b1-2)[Neu5Ac(a2-6)Gal(b1-4)GlcNAc(b1-4)]Man(a1-3)[GlcNAc(b1-4)][Neu5Ac(a2-6)Gal(b1-4)GlcNAc(b1-4)Man(a1-6)]Man(b1-4)GlcNAc(b1-4)GlcNAc
# How it was run: as §1
# [11] = target: Neu5Ac(a2-6)Gal(b1-4)GlcNAc(b1-2)[Neu5Ac(a2-6)Gal(b1-4)GlcNAc(b1-6)]Man(a1-6)[Neu5Ac(a2-6)Gal(b1-4)GlcNAc(b1-2)Man(a1-3)][GlcNAc(b1-4)]Man(b1-4)GlcNAc(b1-4)GlcNAc
# How it was run: as §1
# [12] = target: Neu5Ac(a2-6)Gal(b1-4)GlcNAc(b1-3)Gal(b1-3)GlcNAc
# How it was run: as §1
# [13] = target: Neu5Ac(a2-6)Gal(b1-4)GlcNAc(b1-3)Gal(b1-4)GlcNAc
# How it was run: as §1
# [14] = target: Neu5Ac(a2-6)Gal(b1-4)GlcNAc(b1-3)Gal(b1-4)GlcNAc(b1-2)Man(a1-3)[Neu5Ac(a2-6)Gal(b1-4)GlcNAc(b1-3)Gal(b1-4)GlcNAc(b1-2)Man(a1-6)]GalNAc
# How it was run: as §1
# [15] = target: Neu5Ac(a2-6)Gal(b1-4)GlcNAc(b1-3)Gal(b1-4)GlcNAc(b1-3)Gal(b1-4)GlcNAc
# How it was run: as §1
# [16] = target: Neu5Ac(a2-6)Gal(b1-4)GlcNAc(b1-3)Gal(b1-4)GlcNAc(b1-3)Gal(b1-4)GlcNAc(b1-2)Man(a1-3)[Neu5Ac(a2-6)Gal(b1-4)GlcNAc(b1-3)Gal(b1-4)GlcNAc(b1-3)Gal(b1-4)GlcNAc(b1-2)Man(a1-6)]GalNAc
# How it was run: as §1
# [17] = target: Neu5Ac(a2-6)Gal(b1-4)GlcNAc(b1-3)Gal(b1-4)GlcNAc(b1-3)GalNAc
# How it was run: as §1
# [18] = target: Neu5Ac(a2-6)Gal(b1-4)GlcNAc(b1-3)Gal(b1-4)GlcNAc(b1-3)[Neu5Ac(a2-6)Gal(b1-4)GlcNAc(b1-3)Gal(b1-4)GlcNAc(b1-6)]GalNAc
# How it was run: as §1
# [19] = target: Neu5Ac(a2-6)Gal(b1-4)GlcNAc(b1-3)Gal(b1-4)GlcNAc(b1-6)[Gal(b1-3)]GalNAc
# How it was run: as §1
# [20] = target: Neu5Ac(a2-6)Gal(b1-4)GlcNAc(b1-3)Gal(b1-4)[Fuc(a1-3)]GlcNAc(b1-3)Gal(b1-4)[Fuc(a1-3)]GlcNAc
# How it was run: as §1
# [21] = target: Neu5Ac(a2-6)Gal(b1-4)GlcNAc(b1-3)GalNAc
# How it was run: as §1
# [22] = target: Neu5Ac(a2-6)Gal(b1-4)GlcNAc(b1-3)[Neu5Ac(a2-6)Gal(b1-4)GlcNAc(b1-6)]GalNAc
# How it was run: as §1
# [23] = target: Neu5Ac(a2-6)Gal(b1-4)GlcNAc(b1-6)GalNAc
# How it was run: as §1
# [24] = target: Neu5Ac(a2-6)Gal(b1-4)GlcNAc(b1-6)[Gal(b1-3)GlcNAc(b1-3)]Gal(b1-4)Glc
# How it was run: as §1
# [25] = target: Neu5Ac(a2-6)Gal(b1-4)GlcNAc(b1-6)[Gal(b1-3)]GalNAc
# How it was run: as §1
# [26] = target: Neu5Ac(a2-6)Gal(b1-4)GlcNAc6S
# How it was run: as §1
# [27] = target: Neu5Ac(a2-6)GalNAc
# How it was run: as §1
# [28] = target: Neu5Ac(a2-6)GalNAc(b1-4)GlcNAc
# How it was run: as §1
# [29] = target: Neu5Ac(a2-6)GalNAc(b1-4)GlcNAc6S
# How it was run: as §1
# [30] = target: Neu5Ac(a2-6)GlcNAc(b1-4)GlcNAc
# How it was run: as §1
# [31] = target: Neu5Ac(a2-6)GlcNAc(b1-4)GlcNAc(b1-4)GlcNAc
# How it was run: as §1
binder,measurement,setting,value
Si Bti9 1b-V5-his (Solanum lycopersicum) (protein) MQCNRGCDLALASFYVWRGSNLTLISEMFSTSIADIVSYNNRDNIPNQDSVIAGTRINIPFRCDCLNDGEVLGHAFPYRVKSGDTYDLVARNYSDLTTAQWMMKFNSYPENNIPNTVNLSVVVNCSCGNSDVSKDFGLFVTYPVRAEDNLTSVASAANVSEDIIRRYNPAAVSILDIGQGIIYIPGRDRNGNFPPLPTSTDGLSGGAKKGGRADPAFLYKVVINSKLEGKPIPNPLLGLDSTRTGHHHHHH,glycan array binding signal (z-score),[1],-0.162
same,glycan array binding signal (z-score),[2],-0.229
same,glycan array binding signal (z-score),[3],-0.183
same,glycan array binding signal (z-score),[4],-0.231
same,glycan array binding signal (z-score),[5],-0.285
same,glycan array binding signal (z-score),[6],0.366
same,glycan array binding signal (z-score),[7],-0.308
same,glycan array binding signal (z-score),[8],-0.417
same,glycan array binding signal (z-score),[9],-0.265
same,glycan array binding signal (z-score),[10],-0.221
same,glycan array binding signal (z-score),[11],-0.138
same,glycan array binding signal (z-score),[12],-0.134
same,glycan array binding signal (z-score),[13],-0.19
same,glycan array binding signal (z-score),[14],-0.01
same,glycan array binding signal (z-score),[15],-0.209
same,glycan array binding signal (z-score),[16],0.306
same,glycan array binding signal (z-score),[17],-0.245
same,glycan array binding signal (z-score),[18],-0.059
same,glycan array binding signal (z-score),[19],-0.394
same,glycan array binding signal (z-score),[20],-0.309
same,glycan array binding signal (z-score),[21],-0.062
same,glycan array binding signal (z-score),[22],-0.17
same,glycan array binding signal (z-score),[23],-0.117
same,glycan array binding signal (z-score),[24],-0.248
same,glycan array binding signal (z-score),[25],-0.363
same,glycan array binding signal (z-score),[26],-0.172
same,glycan array binding signal (z-score),[27],-0.223
same,glycan array binding signal (z-score),[28],-0.368
same,glycan array binding signal (z-score),[29],-0.316
same,glycan array binding signal (z-score),[30],-0.289
same,glycan array binding signal (z-score),[31],-0.326
